The text below walks through data of PubChem BioAssay AID1346428 (National Center for Advancing Translational Sciences (NCATS), 2018).

The campaign covered roughly 48,000 compounds. About 1,200 (2.5%) were called active. Inconclusive results (about 2%) are left out.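 How the source made its calls: active means activation of at least 60% and not above a set upper limit (about 1 call in 100 departs from these limits); inconclusive means activation of 40% to 60%, or above that upper limit; inactive means activation under 40%.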 The list shows a part of the results.

UniProt O75388, sequence (O75388 whole entry, looked up): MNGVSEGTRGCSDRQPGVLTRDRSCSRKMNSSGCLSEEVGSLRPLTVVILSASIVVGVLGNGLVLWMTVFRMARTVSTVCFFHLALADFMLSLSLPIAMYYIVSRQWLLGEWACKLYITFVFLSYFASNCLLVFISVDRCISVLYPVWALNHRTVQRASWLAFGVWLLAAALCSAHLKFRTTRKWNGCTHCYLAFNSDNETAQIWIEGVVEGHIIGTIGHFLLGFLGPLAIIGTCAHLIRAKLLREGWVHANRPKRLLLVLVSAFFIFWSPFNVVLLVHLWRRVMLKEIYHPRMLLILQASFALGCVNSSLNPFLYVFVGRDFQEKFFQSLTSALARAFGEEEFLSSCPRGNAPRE

The target in this test is Probable G-protein coupled receptor 32 (Homo sapiens) (UniProt O75388). The experiment in a line: qHTS for Agonists of Human Resolvin D1 Receptor DRV1. Further: 0% is about no effect. The conditions noted are these: CHO-K1 GPR32 beta-arrestin PathHunter luminescence, 90 min; at 76.9 µM; active compounds read high; zero percent set by DMSO-only wells. The procedure, abridged:
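Engineered CHO-K1 line co-expressing GPR32-ProLink and EA-beta-arrestin. Compound treatment lasted 90 min at 37 °C. Luminescence was recorded after 1 h with substrate at ambient temperature, relative to DMSO basal wells.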
(Quantitative high-throughput screening tests each substance at several concentrations.)
For `CC(C)(C)C(=O)Cn1c(=O)n(CCCCCC(=O)NCc2ccc3c(c2)OCO3)c(=O)c2sccc21`, the activation was inactive: -28%. For the molecule `Cc1ccc(C(=O)CSc2nc3cc(C(=O)NC4CCCC4)ccc3c(=O)n2CC2CCCO2)cc1` (stereo unspecified), the activation was inactive: -28.2%. To `COc1ccccc1CCNC(=O)c1ccc(NC(=O)N2CC(C)Sc3ccccc32)cc1` (stereo unspecified) belongs inactive: -19%. To `CCCCn1cc(S(=O)(=O)c2ccc(CC)cc2)c(=O)c2cc(F)c(N3CCCC(C)C3)cc21` (stereo unspecified) belongs inactive: -0.0605%. Regarding `CSc1cccc(NS(=O)(=O)c2ccc3[nH]cc(C(=O)N4CCCC4)c(=O)c3c2)c1`, the activation is inactive: -1.67%. To `COc1cc(OC)c(NC(=O)c2c(C)nn(-c3ccc(C)cc3)c2-n2cccc2)cc1Cl` belongs inactive: -8.84%; to `Cn1c(=O)n(C)c2cc(N3CCCCC3)c(NC(=O)c3ccc(Cl)cc3)cc21`, inactive: 2.35%; to `COc1ccc(C(=O)NCCn2cc(SCC(=O)Nc3ccccc3)c3ccccc32)cc1OC`, inactive: 30.8%. To `CN1CCc2ccccc2Cc2[nH]c3ccccc3c2CC1` belongs inactive: -14.2%; to `Cc1cc(C)c(S(=O)(=O)Nc2cc(-c3cn4ccccc4n3)ccc2C)cc1C`, inactive: 13.6%. In the case of `CCN1CCN(C(=O)c2ccc3c(c2)N(Cc2ccc(Cl)cc2)C(=O)c2ccccc2S3(=O)=O)CC1` it was inactive: -9.64%.

On to `Cc1cc(=O)n2c(C(=O)Nc3ccc(C)c(Cl)c3)c(C(=O)Nc3ccccc3)sc2n1`, for which the activation was inactive: -0.17%. To `COc1ccc(C(=O)N(Cc2sccc2C)C2CCS(=O)(=O)C2)cc1Cl` (stereo unspecified) belongs inactive: -19.2%; to `O=C(O)CCC(=O)N1CCCC1C(=O)O` (stereo unspecified), inactive: -9.71%; to `Cc1cccc(N2CCN(C(=O)C3CCN(S(=O)(=O)c4c(C)noc4/C=C/c4ccccc4F)CC3)CC2)c1C`, inactive: -4.58%.

For `O=C(Cn1ncc2c([nH]c3ccccc32)c1=O)Nc1cc(F)ccc1F`, the activation is inactive: -12.2%. In the case of `Cc1ccc(C(=O)c2sc(Nc3ccccc3F)c(S(=O)(=O)c3ccccc3)c2N)c(C)c1` it was inactive: -21.9%. For the molecule `O=C(NCc1ccc2c(c1)OCO2)c1ccc2c(c1)N(Cc1cccc(Cl)c1)C(=O)c1ccccc1S2`, the activation was inactive: -26.5%. In the case of `COc1c(Cl)cc(C(=O)Nc2cccc(-c3nc4ccccc4[nH]3)c2)cc1Cl` it was active: 106%; in that of `CC(=O)c1ccc(NC2=NS(=O)(=O)c3ccccc32)cc1`, inactive: -11.8%. `O=C(Nc1nnc(S(=O)(=O)N2CCCCCC2)s1)c1ccc(Br)cc1`: the activation is inactive: 18.4%. To `CCOC(=O)c1c(Nc2cccc(O)c2)nnc(-c2ccccc2)c1-c1ccccc1` belongs inactive: 1.79%; to `O=C(NCc1ccc(F)cc1)c1ccc(CSc2nc3ccncc3n2Cc2ccc(F)cc2)cc1`, inactive: -17.2%.

In the case of `Cc1cc(C)c(Cn2c3ccccc3c3cnn(CC(=O)NCCc4ccccc4)c(=O)c32)c(C)c1`, the activation is inactive: -23.1%. To `Cc1ccc(Cl)cc1N1CCN(C(=O)CN2C(=O)COc3ccc(S(=O)(=O)N4CCOCC4)cc32)CC1` belongs inactive: -7.15%; to `CCc1cccc(C)c1NS(=O)(=O)c1c(C(=O)N2CCCCCC2)c(C)n(C)c1C`, inactive: -23.8%. Regarding `COc1ccc(Cl)cc1NC(=O)Cn1nnc2sc3c(c2c1=O)CCC(C(C)(C)C)C3` (stereo unspecified), the activation was inactive: -7.3%. In the case of `COc1cc(Cl)c(C)cc1NC(=O)CCCN1C(=O)C(c2ccccc2)Oc2cccnc21` (stereo unspecified) it was inactive: -5.5%; in that of `COCCNC(=O)Cn1c(=O)n(Cc2ccc(C(=O)NCCc3ccc(OC)c(OC)c3)cc2)c(=O)c2ccccc21`, inactive: 5.55%; in that of `O=C(CSc1nc2ccccc2nc1Cc1ccc(F)cc1)Nc1ccc2c(c1)OCO2`, inactive: -5.61%. In the case of `COc1ccc(-n2c3c(c(=O)[nH]c2=O)C(NC(C)=O)(C(F)(F)F)C(=O)N3)cc1` (stereo unspecified) it was inactive: 5.45%; in that of `Cc1cccc(Oc2nc3ccccn3c(=O)c2/C=C(\C#N)c2nc3ccccc3s2)c1C`, inactive: 13.3%. In the case of `COc1ccc(NC(=O)C2CCCN(S(=O)(=O)c3cn(C)cn3)C2)cc1Cl` (stereo unspecified) it was inactive: -5.01%; in that of `CCOc1ccccc1C1CC(=O)NC(C)=C1C(=O)OC1CCCCCC1` (stereo unspecified), inactive: 39.2%; in that of `Cc1ccc(NC(=O)CSc2nccn2C2CCCC2)cc1`, inactive: -10%. Turning to `COc1ccc(CCNC(=O)c2ccc3c(c2)CCN3S(=O)(=O)c2ccc(Cl)cc2)cc1`, the activation was inactive: -4.14%. On to `O=C(NCCN1CCN(c2ccccc2F)CC1)C1COc2ccccc2C1` (stereo unspecified), for which the activation was inactive: -11%. In the case of `CC(C)Cn1c(=O)c2sccc2n2c(CCCC(=O)NCC(C)c3ccccc3)nnc12` (stereo unspecified) it was inactive: 11.8%; in that of `COc1cccc(-c2ccc3c(N)c(C(=O)Nc4ccc(Cl)cc4F)sc3n2)c1`, inactive: 39.3%; in that of `CCc1ccccc1NC(=O)Cc1ccc(-n2c(C)nc3cccnc32)cc1`, inactive: 4.93%. To `COc1ccc(OC)c(NC(=O)Cc2c(C(=O)O)[nH]c3ccc(Cl)cc23)c1` belongs inactive: -4.85%; to `Cc1ccc(C2=Nc3ccccc3N(CC(=O)NCc3ccc(Cl)cc3)C(=O)C2)cc1C`, inactive: -8.04%.

On to `COc1ccc(CNC(=O)c2ccc3c(c2)N(Cc2ccccc2F)C(=O)c2ccccc2S3=O)cc1` (stereo unspecified), for which the activation is inactive: -19.6%. `CCOc1nc(NC(=O)NS(=O)(=O)Oc2cccc(F)c2)nc(-c2ccccc2)n1`: the activation is inactive: 33.1%.

Take `CC(=O)Nc1nonc1-c1nnc(SCc2ccccc2C)n1C`: the activation is inactive: -11.4%. In the case of `O=C(CSc1oc(-c2ccccc2)nc1S(=O)(=O)c1ccc(Br)cc1)NC1CCCCC1` it was inactive: -14.8%; in that of `Cc1cccc(CSc2nc3cccnc3n2Cc2ccc(C(=O)NCc3cccs3)cc2)c1`, inactive: -21.2%.

For `O=C(c1ccc(Cl)cc1)N1CCCCC1CCN1CCOCC1` (stereo unspecified), the activation is inactive: -11%.

Consider `Cc1ccc(C)c(N2CCN(C(=O)c3cc4c(=O)n(Cc5cccnc5)ccc4nc3C)CC2)c1`, for which the activation was inactive: -9.93%. To `COc1ccc(NC(=O)CSc2nc3ccccc3n2CC(=O)N2CCCC(C)C2)cc1` (stereo unspecified) belongs inactive: -7.54%. To `Cc1ccc(NC(=O)c2cc3c(Cl)nc4ccc(C)cc4c3s2)c(Cl)c1` belongs inactive: -3.16%. In the case of `CCn1c(=O)c2cc(C(=O)Nc3cc(C)c(Cl)cc3OC)sc2c2ccccc21` it was inactive: -7.64%; in that of `Cc1cccc(C(=O)Nc2c(-c3ccc(F)cc3)nc3ccccn23)c1`, inactive: 18.7%; in that of `Cc1cc(C)n(-c2nc3cc(Cl)c(Cl)cc3nc2Nc2ccc(F)cc2C)n1`, inactive: -0.045%. Turning to `COc1ccc(CNC(=O)c2cc(-c3cccs3)nc3ccccc23)c(OC)c1`, the activation was inactive: -0.909%.

On to `CC(=O)N(Cc1cccnc1)c1nc2c(C)cc(C)cc2s1`, for which the activation was inactive: -18.5%. Turning to `CCOc1ccccc1N1CC(c2nc3ccccc3n2CCOc2ccc(OC)cc2)CC1=O` (stereo unspecified), the activation is active: 79.6%.

With `CCOC(=O)c1sc(NC(=O)c2nc3ncccn3n2)c(C(=O)OC(C)C)c1C`, the activation is inactive: -2.57%.

Take `Cc1nnc(N2CCCC(C(=O)Nc3ccccc3C(F)(F)F)C2)c2nn(-c3ccccc3)c(C)c12` (stereo unspecified): the activation was inactive: -4.94%. To `Cc1ccc(NS(=O)(=O)c2ccc3[nH]c4c(c3c2)CCCC4)c(C)c1` belongs inactive: 35.9%; to `CC1CCc2c(sc3nnn(Cc4ccccc4)c(=O)c23)C1` (stereo unspecified), inactive: -4.07%; to `Cc1cc(C)cc(NC(=O)C2CCCN2S(=O)(=O)c2ccc3c(c2)C(C)(C)C(=O)N3C)c1` (stereo unspecified), inactive: -28.5%. In the case of `CCOC(=O)c1ccc(NC(=O)c2ccc3c(c2)c(C)c(C)n3Cc2ccc(F)cc2)cc1` it was inactive: -7.82%.

As to `COc1ccccc1NC(=O)c1oc2ccccc2c1NC(=O)c1c(F)cccc1F`, the activation was inactive: -1.59%. Consider `CCOC(=O)C1(C)C=C(Nc2ccc(OC)cc2)C(=O)N1c1ccccc1` (stereo unspecified), for which the activation was inactive: -9.74%. For the molecule `COc1ccc(Cn2cc(C(=O)c3ccc(Cl)cc3)c(=O)c3cc4c(cc32)OCO4)cc1`, the activation is inactive: 9.58%. As for `Cc1cc(C)c(Cn2c3ccccc3c3cnn(CC(=O)NC4CCCCCC4)c(=O)c32)c(C)c1`, the activation was inactive: 3.27%. In the case of `CC(C)(Sc1cc(C(C)(C)C)c(O)c(C(C)(C)C)c1)Sc1cc(C(C)(C)C)c(O)c(C(C)(C)C)c1` it was inactive: -2.32%; in that of `O=C(Nc1cccc(Cl)c1Cl)c1cc(S(=O)(=O)N2CCC3(CC2)OCCO3)ccc1F`, inactive: -12.9%. In the case of `COc1cc(OC)cc(C(=O)Nc2ccc(S(=O)(=O)N3CCCCC3c3cccnc3)cc2)c1` (stereo unspecified) it was inactive: -18.4%; in that of `Cc1ccc(-n2nc3c(N4CCC(C(=O)N5CCC(C)CC5)CC4)nnc(C)c3c2C)cc1`, inactive: 2.07%. In the case of `COC(=O)c1cc2oc3ccccc3c2n1Cc1nc(-c2cccc(Cl)c2)oc1C` it was inactive: 2.61%; in that of `CCc1ccc(Nc2nn3c(=O)c4cc5c(cc4nc3s2)OCO5)cc1`, inactive: 2.21%; in that of `CC1=C(C(=O)Nc2cccnc2)C(c2cccc(O)c2)n2nc(SCc3ccccc3)nc2N1` (stereo unspecified), inactive: -11.3%. As for `CCCn1c(=O)n(-c2cc(Cl)c(OC)cc2OC)c(=O)c2c3c(sc21)CN(C(C)=O)CC3`, the activation was inactive: -45%. In the case of `Cc1cc(C)c(Cn2c(CCNC(=O)c3ccco3)nc3ccccc32)c(C)c1` it was active: 68.2%; in that of `CCn1cc(CCC(=O)NCc2ccc(F)cc2)c2ccccc21`, inactive: -18.2%; in that of `Cc1ccc([C@H]2Nc3ccc(S(=O)(=O)Nc4cccc(Cl)c4C)cc3[C@H]3C=CC[C@H]32)cc1`, inactive: -25.9%. `Cc1ccc(Nc2nnc(-c3ccc(C)c(S(=O)(=O)N4CCN(C)CC4)c3)c3ccccc23)c(C)c1`: the activation was inactive: -4.31%. To `CCCN(C(=O)c1nn(-c2ccc(OC)c(Cl)c2)c(=O)c2c1c1ccccc1n2C)c1ccccc1F` belongs inactive: -6.61%. For the molecule `COc1ccc(NC(=O)c2ccc3c(=O)n4nc(Nc5cc(C)ccc5C)sc4nc3c2)cc1`, the activation was inactive: -3.19%.
